{"source": "PubChem BioAssay AID652104", "about": "(National Center for Advancing Translational Sciences (NCATS), 2013)", "note": "The whole screen tested about 410,000 compounds, of which about 7,200 (1.8%) were called active. Inconclusive results, whose numbers are uncertain, are shown with a selection of clear calls. Calls follow the shape of the dose curve; as a rule, active = well fitted activation curve with a large enough effect; inconclusive = small, poorly fitted or top-dose-only effect, or another doubt; inactive = no such curve, though single readings can be large or run the other way. Potencies of inconclusive entries are left out as doubtful fits. Some compounds were tested as several samples or in several runs, with calls that do not always agree. Potency is read from the fitted curve at half-maximal effect; tags tell the direction and shape of the fitted curve.", "data": [{"test": "qHTS of TDP-43 Inhibitors; also: nearly all actives have a fitted effect of over 50% in size; as to growth rescue (activation): % of control where 0% means no effect", "conditions": "TDP-43 expressing yeast growth rescue, BacTiter-Glo, 24 h; growth rescue (activation): at 46.1 µM (top of the series) unless noted", "method_in_brief": "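Luminescence from BacTiter-Glo reports growth of TDP-43-expressing yeast after 24 hr at 30 deg C with compound. Cells were raffinose-pregrown to mid-log, then seeded in galactose medium at OD600=0.02.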", "values": [{"molecule": "CCN1C(=O)[C@H]2[C@@H](c3ccc(C(F)(F)F)cc3)N[C@]3(CCCN(Cc4ccc(Br)cc4)C3=O)[C@H]2C1=O", "Potency": "inconclusive [activator, partial curve]"}, {"molecule": "Cc1ccc2nsnc2c1NS(=O)(=O)c1c(C)ccc2nsnc12", "Potency": "inactive"}, {"molecule": "Cc1cc(OC(=O)c2ccc(C(C)(C)C)cc2)c([N+](=O)[O-])c(=O)[nH]1", "Potency": "active: 15.8 µM"}, {"molecule": "O=[N+]([O-])c1cccc(-c2nnc(-c3ccc4c(c3)OCO4)o2)c1", "Potency": "inconclusive [activator, full curve]"}, {"molecule": "Nc1nc(-c2ccccc2)nc(-c2ccccc2O)n1", "Potency": "inconclusive [activator, full curve, poor fit]"}, {"molecule": "CC(C)(C)c1cc2nc(NCCc3ccc(S(N)(=O)=O)cc3)ccn2n1", "Potency": "inactive"}, {"molecule": "COc1ccccc1N1CCN(C(=O)c2cc3c(=O)n4ccccc4nc3s2)CC1", "Potency": "active: 20 µM"}, {"molecule": "O=S(=O)(Nc1cccc(Cl)c1)c1ccc2[nH]c3c(c2c1)CCCCCC3", "Potency": "inconclusive [activator, partial curve]"}, {"molecule": "CC(C)C(=O)Nc1nc(-c2ccc3c(c2)CCN3C(=O)C2CC2)cs1", "Potency": "inconclusive [activator, partial curve]"}, {"molecule": "S=C(NCc1ccccn1)Nc1ccc(Cl)cc1Cl", "Potency": "active: 11.2 µM"}, {"molecule": "CCC(=O)Nc1ccc2c(c1)ncn2-c1ccc(C)cc1", "Potency": "inconclusive [activator, single point]"}, {"molecule": "N#C/C(=C\\c1ccc(-c2ccccc2C(=O)O)o1)c1nc2ccccc2[nH]1", "Potency": "active: 22.4 µM"}, {"molecule": "O=C(Cn1nc2c(cc1=O)CCCC2)Nc1ccc(F)cc1F", "Potency": "inactive"}, {"molecule": "O=C(NCCCn1ccnc1)Nc1cccc2ccccc12", "Potency": "inactive"}, {"molecule": "COc1ccc2cc(C3=CC(=O)CCC3)ccc2c1", "Potency": "inconclusive [activator, partial curve]"}, {"molecule": "CN(Cc1cccc(F)c1)C(=O)c1ccccc1Sc1ccccc1C#N", "Potency": "inconclusive [activator, single point]"}, {"molecule": "O=C(COC(=O)c1cc(S(=O)(=O)N2CCCC2)ccc1O)Nc1ccc(F)cc1F", "Potency": "inconclusive [activator, single point]"}, {"molecule": "COc1ccc2cc(C(=O)/C=C/c3cc(OC)c(O)c(OC)c3)ccc2c1", "Potency": "inconclusive [activator, single point]"}, {"molecule": "COc1cc(OC)cc(C(=O)Nc2cccc(NC(=O)c3ccccc3)c2)c1", "Potency": "inactive"}, {"molecule": "O=C(NC(=S)Nc1cccc(NC(=O)c2ccccc2Cl)c1)c1cccs1", "Potency": "inconclusive [activator, full curve, poor fit]"}, {"molecule": "COc1ccc(-n2c(=O)/c(=C\\c3cccs3)s/c2=C(/C#N)C(=O)N2CCN(C)CC2)cc1", "Potency": "inactive"}, {"molecule": "CC(OC(=O)CNS(=O)(=O)/C=C/c1ccccc1)C(=O)Nc1ccc(S(=O)(=O)N2CCCC2)cc1", "note": "(configuration not stated)", "Potency": "inconclusive [activator, partial curve]"}, {"molecule": "COC(=O)c1c(C)oc2ccc(N(C(=O)c3ccncc3)S(=O)(=O)c3cc(C)c(C)cc3C)cc12", "Potency": "inactive"}, {"molecule": "C=CCNS(=O)(=O)NC(=O)C1=C(N2CCCC2)COC1=O", "Potency": "inconclusive [activator, partial curve]"}, {"molecule": "COc1ccc(CNC(=O)CSCc2cnn(-c3ccccc3)c2-n2cccc2)cc1", "Potency": "inconclusive [activator, partial curve]"}, {"molecule": "CCOC(=O)c1c(S(=O)(=O)N2CCC(C(=O)N3CCN(c4cccc(C)c4C)CC3)CC2)c(C)n(C)c1C", "Potency": "inactive"}, {"molecule": "CCn1cnc2c(cnn2-c2ccccc2)c1=O", "Potency": "inactive"}, {"molecule": "Cc1ccccc1-c1nnc(CN2CCN(c3cc(Cl)ccc3C)CC2)o1", "Potency": "inconclusive [activator, single point]"}, {"molecule": "Cc1ccc(OCC(=O)N/N=C\\c2ccc(C)o2)c(C)c1", "Potency": "inconclusive [activator, full curve]"}, {"molecule": "CC1CCCN(CCOCCOc2ccc(Cl)cc2Br)C1", "note": "(configuration not stated)", "Potency": "inactive"}, {"molecule": "O=C(COC(=O)C12CC3CC(CC(C3)C1)C2)Nc1ccc(OC(F)F)cc1", "Potency": "active: 17.8 µM"}, {"molecule": "CC(C)(CNC(=S)NCCc1ccccc1)CNC(=S)NCCc1ccccc1", "Potency": "inconclusive [activator, partial curve]"}, {"molecule": "Oc1ccc(-c2csc(-c3cccnc3)n2)c(O)c1", "growth rescue (activation)": "inactive: 8.52% [at 9.22 µM]"}, {"molecule": "Oc1ccccc1-c1cc(-c2ccccc2)n[nH]1", "Potency": "inconclusive [activator, partial curve]"}, {"molecule": "CCOc1ccc(OCC(=O)N2CCOCC2)cc1", "Potency": "inactive"}, {"molecule": "Cc1nc2ccc(C(=O)OCc3nnc(-c4ccccc4)o3)cc2nc1C", "Potency": "inconclusive [activator, partial curve]"}, {"molecule": "[O-]/C(=C(\\C(=S)Nc1ccccc1F)[n+]1ccccc1)c1ccc(-c2ccccc2)cc1", "Potency": "inconclusive [activator, single point]"}, {"molecule": "Cc1cccc(-n2nnnc2SCn2nnc3ccccc3c2=O)c1", "Potency": "inconclusive [activator, single point]"}, {"molecule": "Cc1ccc(Nc2cc(C)nc3nc(Cc4ccc(Cl)cc4)nn23)cc1", "Potency": "inconclusive [activator, partial curve]"}, {"molecule": "Cc1cccc(N2C(=O)C(CC(=O)Nc3cccc(F)c3)N(Cc3cccs3)C2=O)c1", "note": "(configuration not stated)", "Potency": "inactive"}, {"molecule": "O=C(CCC(=O)OCc1cccc([N+](=O)[O-])c1)Nc1ccccc1Cl", "Potency": "inconclusive [activator, single point]"}, {"molecule": "COc1cc(OC)nc(NC2OC(=O)c3ccccc32)n1", "note": "(configuration not stated)", "Potency": "inconclusive [activator, single point]"}, {"molecule": "C(=N\\Nc1nncc2ccccc12)/c1ccccc1", "Potency": "active: 22.4 µM"}, {"molecule": "C/C(=N\\NC(=O)c1c([N+](=O)[O-])c(C)nn1C)c1ccc(NC(=O)c2ccc(C)o2)cc1", "Potency": "inconclusive [activator, single point]"}, {"molecule": "CCC12CN3CC(C)(CN(C1)C3c1ccc(O)cc1O)C2=O", "note": "(configuration not stated)", "Potency": "inactive"}, {"molecule": "COc1cccc(OCC(=O)NNC(=S)Nc2ccc(Cl)cc2Cl)c1", "Potency": "inconclusive [activator, partial curve]"}, {"molecule": "CC(C)CN(C(=O)CSc1nnc(-c2cccs2)n1C1CC1)C1CCS(=O)(=O)C1", "note": "(configuration not stated)", "Potency": "inactive"}, {"molecule": "CCCCN1CC(COCc2ccccc2)OCCS1(=O)=O", "note": "(configuration not stated)", "Potency": "inconclusive [activator, single point]"}, {"molecule": "COc1ccc([C@H]2CC(=O)C=C(c3ccc(C)cc3)C2)cc1", "Potency": "inconclusive [activator, single point]"}, {"molecule": "COc1cc2c(cc1OC)CN(C(=O)Cc1c(F)cccc1Cl)CC2", "Potency": "active: 15.8 µM"}, {"molecule": "N#Cc1ccc(CSc2nnc(-c3ccncc3)n2CCc2ccccc2)cc1", "Potency": "inactive"}, {"molecule": "CCOC(=O)N1CCN(C(=O)c2ccccc2NC(=O)COc2ccccc2C)CC1", "Potency": "inconclusive [activator, single point]"}, {"molecule": "CCCn1c(C2CCCN2c2nc(-c3cccc(Br)c3)cs2)nc2ccccc21", "note": "(configuration not stated)", "Potency": "inconclusive [activator, partial curve]"}, {"molecule": "O=C(Cc1csc2ccccc12)NCc1cccc(Br)c1", "Potency": "inactive"}, {"molecule": "Cc1noc(C)c1CSc1nc2ccccc2s1", "Potency": "inconclusive [activator, partial curve]"}, {"molecule": "Cc1ccccc1CN1CCC(CNc2ncnc3onc(-c4ccc(Cl)cc4)c23)CC1", "Potency": "inactive"}, {"molecule": "CC(OC(=O)c1nc(Cl)ccc1Cl)C(=O)c1ccccc1", "note": "(configuration not stated)", "Potency": "inconclusive [activator, partial curve]"}, {"molecule": "CC(=O)c1ccc(N2C(=O)N(Cc3cccc(C(F)(F)F)c3)c3ccccc3S2(=O)=O)cc1", "Potency": "inactive"}, {"molecule": "O=C1C2C3c4ccccc4C(c4ccccc43)C2C(=O)N1Cc1ccccn1", "note": "(configuration not stated)", "Potency": "inconclusive [activator, single point]"}, {"molecule": "CCOc1cccc(/C(O)=C2/C(=O)C(=O)N(Cc3cccnc3)C2c2ccco2)c1", "note": "(configuration not stated)", "Potency": "inconclusive [activator, partial curve]"}, {"molecule": "O=C(c1nc(-c2ccc(Cl)cc2)n2c1CCCCC2)N1CCN(c2ccccc2F)CC1", "Potency": "inconclusive [activator, full curve, poor fit]"}, {"molecule": "COc1ccccc1CNC(=O)CC1N=C2c3ccccc3N=C(SCC(=O)Nc3ccc(F)cc3)N2C1=O", "note": "(configuration not stated)", "Potency": "inactive"}, {"molecule": "CCOC(=O)c1[nH]c(C)c(C(=O)OCC)c1C", "Potency": "inconclusive [activator, partial curve]"}, {"molecule": "C=CCn1c(CCc2cc(C(C)(C)C)c(O)c(C(C)(C)C)c2)n[nH]c1=S", "Potency": "inconclusive [activator, partial curve]"}, {"molecule": "CC(C)CNC(=O)COC(=O)c1ccc([N+](=O)[O-])cc1Cl", "Potency": "inconclusive [activator, partial curve]"}, {"molecule": "Cc1cc(OCc2ccc(C(=O)n3cccn3)o2)ccc1Cl", "Potency": "inconclusive [activator, single point]"}, {"molecule": "Cc1ccccc1N(C(=O)CNC(=O)c1cccs1)C(C(=O)NC1CCCC1)c1ccncc1", "note": "(configuration not stated)", "Potency": "inactive"}, {"molecule": "CCOC(=O)c1ccc2c(c1)N(Cc1cccc(OC)c1)C(=O)c1ccccc1S2(=O)=O", "Potency": "inactive"}, {"molecule": "O=C(c1cc(C2CC2)nn1-c1ccccc1)N1CCN(c2ccccc2O)CC1", "Potency": "active: 17.8 µM"}, {"molecule": "Cc1ccc(-n2nnnc2-c2cccnc2)cc1", "Potency": "inactive"}, {"molecule": "Cc1ccccc1OCCn1c(=O)oc2ccccc21", "Potency": "inconclusive [activator, single point]"}, {"molecule": "CCC(CC)C(=O)Nc1ccc(OCc2cc(=O)n3ccsc3n2)cc1", "Potency": "inconclusive [activator, partial curve]"}]}]}
